Measurements published in US20230192841A1 (NANJING LEGEND BIOTECH, published 2023).
Where two headings read alike, the source gives them in different places.

Experiments:
human Claudin18.1 [1] = target: T1, human Claudin18.1 (human, UniProt P56856 1-261); test: flow cytometry on PANC1.huCLDN18.1.Luc cells, Binding %
T1 construct: whole, on cells; expressed on PANC1 cells (PANC1.huCLDN18.1.Luc); also called huCLDN18.1; CLDN18.1

human Claudin18.2 [2] = target: T2, human Claudin18.2 (human, UniProt P56856-2 1-261); test: flow cytometry, PANC1.huCLDN18.2.Luc cells (Example 7)
T2 construct: whole, on cells; expressed on Dubca, HEK293T, PANC1 cells by lentiviral transduction; endogenous on NUGC4 and KATOIII cells; also called huCLDN18.2; CLDN18.2
Procedure: (§1) Briefly, 5.0×10⁵ PANC1.huCLDN18.1.Luc or PANC1.huCLDN18.2.Luc cells in DPBS (pH7.2) were incubated with serially diluted anti-Claudin18.2 VHH-hIgG1Fc at 4° C. for 45 min, followed by wash-centrifugation-supernatant depletion-cell washing cycles for 3 times with DPBS. After wash, cell pellets were re-suspended in DPBS and incubated with a secondary antibody (1:200, Alexa Fluor™ 488 GOAT anti-human IgG (H+L) Antibody, Invitrogen, Cat. No. A1 1013) at 4° C. for 30 min in dark. The cells were then subject to wash-centrifugation-supernatant depletion-cell washing cycles for 3 times with DPBS. The cells were then run on Attune NXT flow cytometry to detect antibody-PANC1.huCLDN18.1.Luc or PANC1.huCLDN18.2.Luc binding level. Binding capabilities of each test antibody were described as Percentage of Binding, calculated with (cells with antibody binding/total cells)× 100 %.
(§2) Coding sequence of selected clones of humanized single domain antibody were codon optimized for human codon biased expression with GenScript OptimumGene™-Codon Optimization. The resulting coding DNA fragments were synthesized and fused to nucleotides nucleotide coding human IgG1 Fc portion (SEQ ID NO:76), for transient expression in chimeric formats. […] The humanized chimeric anti-Claudin18.2 antibodies were obtained using the mothed described in Example 2. The binding capacity of humanized chimeric antibodies to PANC1.huCLDN18.1.Luc or PANC1.huCLDN18.2.Luc cells were measured.

human Claudin18.1 [3] = target: T1, human Claudin18.1; test: flow cytometry on PANC1.huCLDN18.1.Luc cells, Binding %; remark: listed apart in the source
Procedure: as §1, §2

human Claudin18.2 [4] = target: T2, human Claudin18.2; test: flow cytometry, PANC1.huCLDN18.2.Luc cells; end tied to this member by its EC50 0.2862 nM in the 10th table
Procedure: as §1
as §2, with “The” for “The humanized chimeric anti-Claudin18.2 antibodies were obtained using the mothed described in Example 2. The”

human Claudin18.2 [5] = target: T2, human Claudin18.2; test: flow cytometry, PANC1.huCLDN18.2.Luc cells, percentage of binding
Procedure: as §1

human Claudin18.1 [6] = target: T1, human Claudin18.1; test: flow cytometry on PANC1.huCLDN18.1.Luc cells, Binding %; remark: listed apart in the source
Procedure: as §1

human Claudin18.2 [7] = target: T2, human Claudin18.2; test: flow cytometry, PANC1.huCLDN18.2.Luc cells, at 10 nM
Procedure: as §1

human Claudin18.2 [8] = target: T2, human Claudin18.2; test: flow cytometry, PANC1.huCLDN18.2.Luc cells; end tied to this member by its EC50 0.71 nM in the 7th table
Procedure: as §1

human Claudin18.2 [9] = target: T2, human Claudin18.2; test: flow cytometry, PANC1.huCLDN18.2.Luc cells; end tied to this member by its EC50 10.92 nM in the 7th table
Procedure: as §1

human Claudin18.2 [10] = target: T2, human Claudin18.2; test: flow cytometry, PANC1.huCLDN18.2.Luc cells; end tied to this member by its EC50 25.45 nM in the 10th table
Procedure: as §1
as §2, with “The” for “The humanized chimeric anti-Claudin18.2 antibodies were obtained using the mothed described in Example 2. The”

| Binder | EC50 (human Claudin18.2 [2]) | binding result (human Claudin18.1 [3]) | EC50 (human Claudin18.2 [5]) | binding result (human Claudin18.1 [6]) | maximum binding% (human Claudin18.2 [7]) | further results |
| --- | --- | --- | --- | --- | --- | --- |
| VHH182511H9-hIgG1Fc (Fc fusion, humanized VHH fused to human IgG1 Fc) QVQLLESGGGLVQPGGSLRLSCAASRSTYCMGWFRQAPGKGLERVANVYMRNGDTWLADSVKGRFTISRDNSKNAVYLQMTRLRAEDTAVYYCAAGRSSCLEASISYWGQGTLVTVSS[in this place human IgG1 Fc] | 0.341 nM | – | – | – | – | binding result (human Claudin18.1 [1]): no binding (tested: about 100 nM) |
| VHH182511H8-hIgG1Fc (Fc fusion, humanized VHH fused to human IgG1 Fc) EVQLLESGGGLVQPGGSLRLSCAASRSTYCMGWFRQAPGKGLERVANVYMRNGDTWLADSVKGRFTISRDNSKNAVYLQMNSLRAEDTAVYYCAAGRSSCLEASISYWGQGTLVTVSS[in this place human IgG1 Fc] | 0.286 nM | no binding (tested: about 100 nM) | – | – | – | fold higher binding potency than 175DX-hIgG1Fc (human Claudin18.2 [4]): 1.93 to 172 fold |
| VHH182512-hIgG1Fc (Fc fusion, chimeric antibody: camelid VHH fused to human IgG1 Fc) EVQLVESGGGSVQAGGSLTLSCEASRSTANMAWFRQGPGKEREGVAAAHSDGSTKYADSVKGRFTISKDNGKNTLYLRMNGLKPEEGVMYYCAARGSPWWNSVVALESYAYSYWGQGTQVTVSS[in this place human IgG1 Fc] | – | – | 0.71 nM | no binding (tested: about 1000 nM) | ~100% | fold higher binding potency than 175DX-hIgG1Fc (human Claudin18.2 [8]): 1.24 to 19 fold |
| VHH182514-hIgG1Fc (Fc fusion, chimeric antibody: camelid VHH fused to human IgG1 Fc) QVQLVESGGGSVQAGGSLSLSCAASGDTFHSKCMAWFRQGPGKEREVVATIQSGYYRPYYTDSVKGRFTISRDADKNRVYLQMDSLKPEDTAMYYCAADRFTYPYGVICGGISANYRYWGQGTRVTVSS[in this place human IgG1 Fc] | – | – | 10.9 nM | no binding (tested: about 1000 nM) | ~100% | fold higher binding potency than 175DX-hIgG1Fc (human Claudin18.2 [9]): 1.24 to 19 fold |
| VHH182513H8-hIgG1Fc (Fc fusion, humanized VHH fused to human IgG1 Fc) QVQLVESGGGVVQPGRSLRLSCAASGYRSSVCMGWFRQAPGKGLERVAVIGRDGSTTYIDSVKGRFTISRDNSKNTLYLQMNSLRAEDTAVYYCAAGLGYWACEYNYWGQGTLVTVSS[in this place human IgG1 Fc] | 25.4 nM | no binding (tested: about 3000 nM) | – | – | – | fold higher binding potency than 175DX-hIgG1Fc (human Claudin18.2 [10]): 1.93 to 172 fold |
